Data published in PMC4336329 (PLoS ONE, 2015).
Out of some 310,000 compounds screened, about 2,200 (0.71%) showed an effect of 50% or more. The effect is printed as a negative number. This is one part of the list.

Biological target: human ether-à-go-go-related gene (hERG) potassium channel (human, UniProt Q12809)
Assay: primary screen, population patch clamp on CHO cells stably expressing hERG

Sequence of human ether-à-go-go-related gene (hERG) potassium channel (Q12809 whole entry, looked up): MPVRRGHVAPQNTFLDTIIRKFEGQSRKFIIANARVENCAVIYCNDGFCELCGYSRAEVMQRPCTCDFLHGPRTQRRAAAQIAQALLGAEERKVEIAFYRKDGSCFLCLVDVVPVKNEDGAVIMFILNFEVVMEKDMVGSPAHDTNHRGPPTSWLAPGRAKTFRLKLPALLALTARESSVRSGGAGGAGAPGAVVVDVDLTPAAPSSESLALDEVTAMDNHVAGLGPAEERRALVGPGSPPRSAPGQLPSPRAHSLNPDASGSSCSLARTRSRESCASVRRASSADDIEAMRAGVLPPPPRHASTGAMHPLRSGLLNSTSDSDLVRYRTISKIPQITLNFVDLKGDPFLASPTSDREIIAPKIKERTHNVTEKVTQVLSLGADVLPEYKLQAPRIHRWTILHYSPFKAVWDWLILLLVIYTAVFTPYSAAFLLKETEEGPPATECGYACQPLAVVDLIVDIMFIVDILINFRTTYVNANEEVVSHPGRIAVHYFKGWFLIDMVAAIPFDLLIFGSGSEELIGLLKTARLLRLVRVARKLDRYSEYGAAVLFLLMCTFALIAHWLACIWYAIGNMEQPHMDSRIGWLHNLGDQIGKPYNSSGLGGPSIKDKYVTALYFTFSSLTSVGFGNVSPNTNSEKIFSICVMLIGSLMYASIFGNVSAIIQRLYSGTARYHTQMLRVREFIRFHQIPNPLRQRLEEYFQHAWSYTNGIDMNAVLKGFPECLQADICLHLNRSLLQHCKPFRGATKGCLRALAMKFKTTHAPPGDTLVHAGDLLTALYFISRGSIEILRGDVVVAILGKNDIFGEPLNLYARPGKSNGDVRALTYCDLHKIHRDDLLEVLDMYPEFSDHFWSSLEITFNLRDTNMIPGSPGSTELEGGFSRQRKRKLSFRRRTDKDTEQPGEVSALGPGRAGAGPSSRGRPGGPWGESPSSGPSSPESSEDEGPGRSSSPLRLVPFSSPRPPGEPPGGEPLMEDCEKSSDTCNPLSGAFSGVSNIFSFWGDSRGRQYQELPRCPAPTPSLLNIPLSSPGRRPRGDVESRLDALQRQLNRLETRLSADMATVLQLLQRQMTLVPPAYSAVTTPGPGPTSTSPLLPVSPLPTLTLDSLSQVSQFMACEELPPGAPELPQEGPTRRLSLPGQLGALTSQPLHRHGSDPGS

Compound	hERG current change (%, negative = inhibition) at 1uM
COc1cccc(/C=N/NC(=O)CCNc2n[nH]c(=O)[nH]c2=O)c1OC	14.8%
CCCC(C)n1[nH]c(=O)c2c1NC(=O)CSC2c1ccccc1 (stereo not shown)	4.11%
CCn1nc(C(=O)Nc2nc(-c3ccccn3)cs2)c2ccccc2c1=O	9%
O=c1cc(CSc2nnc3ccccn23)c2c(ccc3ccccc32)o1	0.0307%
CCN(CC)c1ccc(N=Cc2c(O)n(-c3cc(OC)ccc3OC)c(=O)[nH]c2=O)cc1	20.9%
CC(C)(C)NC(=O)C(=O)NNC(=O)c1ccccc1	12.4%
Cc1cccn2c(=O)c3cc(C(=O)NCCN4CCOCC4)c(=N)n(CCc4ccccc4)c3nc12	-71.8%
CCc1nnc(NC(=O)c2ccc(S(C)(=O)=O)cc2)s1	6.81%
COc1ccc2[nH]c(=O)c(CN(C(=O)c3cccnc3)c3ccc(C)c(C)c3)cc2c1	16.6%
c1ccc(Nc2nc(-c3ccccc3)ns2)cc1	14.4%
COc1cccc(NC(=O)CN2C(=O)CSc3ccc(S(=O)(=O)N4CCCCC4)cc32)c1	8.56%
Cc1cc(C)cc(N=c2c([N+](=O)[O-])nn(-c3ccc4c(c3)OCCO4)n2O)c1	-4.52%
CC(=O)[C@@H]1[C@@H](C(=O)c2ccc(F)cc2)[C@]2(C(=O)Nc3ccccc32)[C@H]2C=Cc3cc(F)ccc3N12	8.22%
CCN(CC)CCN(Cc1cc2cc3c(cc2[nH]c1=O)OCO3)C(=S)NC	11.1%
O=C(CSc1nnc2ccccn12)N1CCc2ccccc21	2.08%
COc1cccc(C(=O)/C=C/Nc2ccc(S(=O)(=O)Nc3onc(C)c3C)cc2)c1	13.7%
O=C(COC(=O)c1cccs1)Nc1nnc(-c2ccccc2)o1	6%
O=C(Nc1cccc(-c2nc3ccccc3s2)c1)c1cc(=O)c2ccccc2o1	15.5%
COC(=O)c1sc2nc(C)cc(C)c2c1N	10.9%
CC(C)CN(C(=O)COC(=O)C1=COCCO1)c1c(N)n(Cc2ccccc2)c(=O)[nH]c1=O	19.6%
COc1ccc(CN2CCN(C(=O)c3ccc(CNS(=O)(=O)c4ccc(C)cc4)cc3)CC2)c(OC)c1OC	17.4%
CCCn1c(N)c(C(=O)COC(=O)CCS(=O)(=O)c2ccc(C)cc2)c(=O)[nH]c1=O	13.7%

Compound	hERG current change (%, negative = inhibition) at 1uM
COc1ccc(Br)cc1CNC(=O)CCN1C(=O)COc2ccccc21	6.61%
COc1ccccc1Nc1ncccc1[N+](=O)[O-]	23.5%
CCc1ccc(C(=O)Nc2ccc(S(=O)(=O)Nc3nc(C)cc(C)n3)cc2)o1	12.3%
CS(=O)(=O)NNC(=O)CN1C(=O)C2C3C=CC(C3)C2C1=O (stereo not shown)	22.9%
CCOC(=O)NC(Nc1nnc(C)s1)(C(=O)OCC)C(F)(F)F (stereo not shown)	11%
Cc1ccc(Cl)c(NC(=O)COC(=O)C2CCC2)c1Cl	25.3%
COC(=O)C1CCCN1C(=O)C12CC3CC(CC(C3)C1)C2 (stereo not shown)	13.8%
CN(C(=O)Cn1cnc2ccccc2c1=O)C1CCS(=O)(=O)C1 (stereo not shown)	0.575%
COc1ccc(C(O)(CCN2CCCCC2)C2CCCCC2)cc1.Cl (stereo not shown)	12.9%
Cc1cccc(C)c1NC(=O)c1ccc(CN2CCc3ccccc3C2)cc1	9.59%
CCC(C)N(C(=O)c1csnn1)C(C(=O)NC1CCCC1)c1c(F)cccc1Cl (stereo not shown)	14.2%
O=C(CCNc1cccc(F)c1)c1cccc([N+](=O)[O-])c1	16.6%
CCCn1nnc(NC(=O)C(C)Oc2ccc(Cl)cc2Cl)n1 (stereo not shown)	7.8%
O=C(Nc1c2c(nn1-c1ccc([N+](=O)[O-])cc1)CS(=O)(=O)C2)c1ccco1	-24.1%
COc1ccccc1C(=O)NC(=S)NNC(=O)c1sc2ccccc2c1Cl	15.2%
CC(=O)O[C@H]1c2ccccc2-c2ccccc2[C@@H]1OC(C)=O	10.3%
O=C(c1ccc(Cn2cc(Br)cn2)cc1)N1CCN(c2ccccc2)CC1	4.04%
Cc1ccc(C2(O)CN3CCC2CC3)cc1.Cl (stereo not shown)	2%
CC1CCC(NC(=O)Cn2c(=O)oc3cc(S(=O)(=O)N4CCCC4)ccc32)CC1 (stereo not shown)	14.8%
Cc1nnc(SCC2=C(C(=O)O)N3C(=O)C(NC(=O)Cn4ncc(Cl)c4C)C3SC2)s1 (stereo not shown)	12.9%
O=C1CC(N2CCN(c3ncccn3)CC2)C(=O)N1CCc1ccccc1 (stereo not shown)	12%
Cc1ccc(C(=O)Nc2ccc3c(c2)OCCO3)c(C)c1	16%

Compound	hERG current change (%, negative = inhibition) at 1uM
O=C(O)C1CCC(CNS(=O)(=O)c2ccccc2)CC1 (stereo not shown)	9.37%
COc1ccc(N2CCN(C(=O)[C@H](C)NC(=O)c3ccccc3Cl)CC2)cc1	12.5%
COC(=O)C1=C(c2ccc(OC)c(OC)c2)C[C@@H]2CC[C@H]1N2C(=O)NCCOc1ccccc1Cl	14.4%
COc1ccc(C(=O)NN(C)c2nc(C(F)(F)F)nc3ccccc23)cc1	15.3%
Cc1cc(Cl)c(S(N)(=O)=O)cc1OCC(=O)NC1CCCCC1	10.2%
COc1cccc(CNC(=O)C(=O)NCCC2CCCCN2S(=O)(=O)c2ccc(C)cc2)c1 (stereo not shown)	10.5%
COc1ccc(N=C2SCC(c3ccc([N+](=O)[O-])cc3)=NN2CCO)cc1	7.41%
O=C(c1ccc(Cl)cc1)C(CN1CCCC1)c1ccccc1 (stereo not shown)	10.4%
O=C1C=C(Nc2ccccc2)CC(c2ccccc2)C1 (stereo not shown)	13.2%
COc1ccc(-c2cc(C)no2)cc1S(=O)(=O)N1CCN(c2ccccc2F)CC1	4.55%
COc1cc(OC)cc(C(=O)NC(C(=O)Nc2ccc3c(c2)OCCO3)C(C)C)c1 (stereo not shown)	5.12%
O=C1C2CCCN2C(c2ccccc2)N1c1cccc(Cl)c1 (stereo not shown)	-3.47%
O=C(CSc1nnc(-c2ccco2)o1)NC1CCCCCC1	-4.96%
COCc1cc(=O)[nH]c(/N=C(\N)Nc2cccc(Cl)c2)n1	5.67%
CCOc1ccc(NC(=O)NCCCCc2ccccc2)cc1	16.2%
CC(C)Sc1nc(SCC(=O)O)c2c3c(sc2n1)COC(C)(C)C3	6.55%
Cc1cccc(NC(=O)CCOc2ccccc2)c1C	5.87%
CCCCN1C(=O)C(NC(=O)C2CC2)(C(F)(F)F)C2=C1CC(C)(C)CC2=O (stereo not shown)	11.1%
C/C(=N\NC(=O)c1ccccc1Br)c1ccc(N2CCOCC2)cc1	8.25%
COc1ccc([N+](=O)[O-])cc1N(CC(=O)NCC1CCCO1)S(C)(=O)=O (stereo not shown)	12.1%
CCc1ccc(OCC(=O)NNC(=O)CSc2nnc(-c3ccc(C)cc3)n2C)cc1	10.2%
COc1ccc(CNC(=O)CSc2nnc3c(Cl)cc(C(F)(F)F)cn23)cc1OC	1.09%

Compound	hERG current change (%, negative = inhibition) at 1uM
Clc1ccc(-n2nnnc2CN2CCOCC2)cc1Cl	6.94%
CCCn1c(N)c(N(CCOC)C(=O)c2ccc([N+](=O)[O-])cc2Cl)c(=O)[nH]c1=O	11.4%
CCN(CC(=O)NCc1cccs1)C(=O)/C=C/c1ccc(OC)cc1OC	-2.59%
O=C(CSc1nnc(C2CC2)n1-c1ccccc1)NCCN1C(=O)CSC1=O	8.18%
O=C(N/N=C/c1ccncc1)c1ccc(NC(=O)c2cccc(Cl)c2)cc1	23.6%
CCN(CC(=O)NC1CCS(=O)(=O)C1)C(=O)c1ccc(S(=O)(=O)N(CC)CC)cc1 (stereo not shown)	11.7%
CCOC(=O)N1CCC(Nc2c(NCCN3CCN(Cc4ccccc4)CC3)c(=O)c2=O)CC1	-3.25%
CN(C)c1ccc(N=Cc2c(O)n(CCC3=CCCCC3)c(=O)[nH]c2=O)cc1	7.77%
Cc1cc(C)c(C)c(S(=O)(=O)NC(C(=O)O)C(C)C)c1C (stereo not shown)	16.1%
O=C1N(Cc2cccc(Cl)c2)C[C@@H]2C[C@@H](c3cccc4cccnc34)N3CCC[C@@]123	-63.8%
Cc1nc(N)c2c(Cc3cccc4ccccc34)nn(C(C)(C)C)c2n1	4.51%
COC(=O)c1ccc(C(=O)OC)c(NC(=S)N2CCC(N3CCCCC3)CC2)c1	6.3%
COc1ccc(N2CC(C(=O)NCc3cccnc3)CC2=O)cc1 (stereo not shown)	8.95%
CCn1ncc([N+](=O)[O-])c1C(=O)N1CCc2ccccc2C1	10.3%
Cc1cccc(-c2nc(CSCC(=O)NCCCN3CCOCC3)c(C)o2)c1	13.9%
Cn1nnnc1SCC(=O)Nc1ccccc1C(N)=O	21.1%
CCOC(=O)CCSc1nc(-c2ccc3c(c2)OCO3)cc(C(F)(F)F)c1C#N	7.49%
O=C(CN(C(=O)CNC(=O)c1ccco1)c1ccc(F)c(Cl)c1)NC1CCCCC1	13.6%
Cc1c(Cc2ccccc2)c(=O)oc2c(C)c(OCC(=O)NCC3CCC(C(=O)O)CC3)ccc12 (stereo not shown)	16.8%
